Measurements as given in PubChem BioAssay (NCI).
“And” between values parts separate entries of the source, which are not always exact repeats. Identical values can stand only once.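 All cell lines were grown in 96-well plates and treated with compound for 48 hours. The concentration for 50% growth inhibition is given as GI50. The concentration for full growth arrest is given as TGI.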

System: NCI-H322M lung
Test: DTP human tumour cell line panel, 48 h

| Compound | TGI | GI50 |
| --- | --- | --- |
| COC(=O)/C(C#N)=C1\CCC(O)N1 (stereo not given) | > 100 µM |  |
| O=C(OCC1OC2OC(c3ccccc3)(n3ccc4c([N+](=O)[O-])ccnc43)OC2C1OC(=O)c1ccccc1)c1ccccc1 (stereo not given) | > 100 µM |  |
| O=C(Nc1ccc(-c2ccccc2)cc1)C1CCN(S(=O)(=O)c2ccccc2Cl)CC1 | > 100 µM | > 100 µM |
| CN(CCCNC(=O)Cc1ccc2ccc3cccc4ccc1c2c34)CCCNc1cc(-c2ccc3ccccc3c2)nc2ccccc12 | 2.88 µM | 1.5 µM |
| CN(C)Cc1cc(C(=O)/C=C/c2ccccc2Cl)cc(CN(C)C)c1O | 8.43 µM |  |
| O=c1[nH]c2cc(Cl)ccc2nc1/C(=N\O)C(O)c1ccc(Cl)cc1Cl (stereo not given) | > 100 µM |  |
| N#C/C(=C\n1ccc(=O)[nH]c1=S)C(N)=O | > 100 µM |  |
| C=CCNC(=O)N(CCC)CCCCC(NC(C)=O)C(=O)NCc1ccccc1 (stereo not given) | > 100 µM |  |
| COC(=O)C1=C(C(=O)OC)SC2(S1)C1=C(CCCC1)SC(C(=O)OC)=C2C(=O)OC | 8.92 µM |  |
| COc1ccc(/C=N/N=C(\N)NO)c(O)c1 | > 10 µM |  |
| COC(=O)C1=CC(=O)OC1(OO)c1ccccc1 (stereo not given) | > 100 µM |  |
| COc1ccc2[nH]c3c4c(ccc3c2c1)C(=O)C=CC4=O | 59.5 µM |  |
| COc1cc(C2=C(c3cn(C)c4ccccc34)COC2=O)cc(OC)c1OC | > 70.1 µM | 0.41 µM |
| CCCCOC(=O)NC(=O)c1cn(CCCOC(=O)NCCCCCCNC(=O)OCCCn2cc(C(=O)NC(=O)OCCCC)c(=O)[nH]c2=O)c(=O)[nH]c1=O | > 100 µM |  |
| Cc1ccc(/C(O)=C/C(=O)C(=O)/C=C(\O)c2ccc(C)cc2C)c(C)c1 | 55.2 µM |  |
| CC(C)S(=O)(=O)c1ccccc1Nc1nc(Nc2cccc(NC(=O)CN)c2)ncc1Cl | 9.92 µM | 1.14 µM |
| O=C(CSc1nnc(Cc2ccccc2)o1)Nc1ccc([N+](=O)[O-])cc1 | > 100 µM |  |
| COc1cc(C2SCC(=O)N2c2ccc(-c3ccc(-n4c(-c5ccccc5)nc5ccccc5c4=O)cc3)cc2)cc(OC)c1OC (stereo not given) | > 100 µM |  |
| CC1=NN(c2ccc(S(=O)(=O)O)cc2)C2(C1)SCC(=O)N2c1nc2ccccc2s1 (stereo not given) | > 100 µM |  |
| CC1=NN2C(=N)/C(=C/c3ccco3)C(=O)N=C2S1 | > 100 µM |  |
| NP(=O)(OCC1=CC(=O)c2ccccc2C1=O)N(CCBr)CCBr (stereo not given) | 13.6 µM |  |
| COC(=O)CCC(=O)CC1CC(=O)C2CCCN12 (stereo not given) | > 100 µM |  |
| CCCCC1(CN2CCOCC2)S/C(=N/c2nc(CC(=O)OCC)cs2)NC1=O (stereo not given) | > 100 µM | 35.6 µM |
| N#Cc1nc(-c2cccs2)oc1N | > 100 µM |  |
| Cc1cn(C(Cc2ccccc2)OCCO)c(=O)[nH]c1=O (stereo not given) | > 100 µM |  |

| Compound | TGI | GI50 |
| --- | --- | --- |
| Cc1ccc(C2(O)CC(c3ccc([N+](=O)[O-])o3)=NN2C(=O)COc2ccc(Cl)cc2)cc1 (stereo not given) | 33.7 µM |  |
| COc1ccc(-c2ccc(/C=N/n3c(C)n[nH]c3=S)o2)c([N+](=O)[O-])c1 | > 100 µM | > 100 µM |
| C=CCSS/C=C/CS(=O)CC=C (stereo not given) | > 100 µM |  |
| O=c1[nH]nc(Cc2ccc([N+](=O)[O-])cc2)n1CCO | > 100 µM |  |
| COc1cc(C)c2c(c1C)OC(=O)c1c(C)c(Cl)c(O)c(C=O)c1O2 | 84.2 µM |  |
| COc1ccc(C2c3cc(OC)c(OC)cc3C(Cc3ccc([N+](=O)[O-])cc3)C2c2ccc([N+](=O)[O-])cc2)cc1OC (stereo not given) | > 100 µM |  |
| COc1ccc2nc3ccccc3c(NCCCCCCN(CCCl)CCCl)c2c1 | 1.4 µM |  |
| CNC(=O)Oc1ccc(-c2cn3cc(OC(=O)NC)ccc3n2)cc1 | > 100 µM |  |
| O=c1c2c([N+](=O)[O-])cccc2nc2[nH]c3ccccc3n12 | > 75 µM |  |
| COC(=O)N/N=C(\C)C(CN1CCCCC1)C(C1=C(O)c2ccccc2OC1)c1ccccc1 (stereo not given) | > 100 µM |  |
| O=C(Nc1ccc(-n2cc(-c3ccncc3)c(-c3ccc(Cl)c(O)c3)n2)cc1)Nc1ccc(Cl)c(C(F)(F)F)c1 | 3.95 µM | 1.58 µM |
| CC(=O)Nc1cc2c(s1)CCC1CC(=O)NN=C21 (stereo not given) | > 100 µM |  |
| COc1ccc(Nc2nc(NS(=O)(=O)c3cc(C)c(Cl)cc3S)n[nH]2)cc1 | > 100 µM |  |
| [Au+].[Au+].[Au+].[c-]1nccn1Cc1ccccc1.[c-]1nccn1Cc1ccccc1.[c-]1nccn1Cc1ccccc1 | 37.5 µM | 17.6 µM |
| CC(C)CNC(=O)O | > 100 µM |  |
| CC1(C)O/C(=C\c2ccccc2)C(=O)/C(=C/c2ccccc2)O1 | > 100 µM |  |
| C[n+]1cc(C(O)c2ccc3c(c2)OCO3)c2ccccc2c1 (stereo not given) | > 100 µM |  |
| C[C@]12CCc3nc(Nc4ccccc4)sc3C1=CC[C@@H]1[C@@H]2CC[C@]2(C)/C(=N/NC(N)=S)CC[C@@H]12 | > 100 µM | > 100 µM |
| CCOC(=O)/C=C(/C(=O)OCC)n1ccc(N)nc1=O | > 100 µM |  |
| Nc1nc(CCl)nc(Nc2ccccc2)n1 | > 100 µM |  |
| COc1ccc(/C(Cl)=C(\C=O)c2ccc(F)cc2)cc1OC | 54.6 µM |  |
| CCCCCCCCCCCCCCCCCC(=O)O[C@H](COC(=O)CCCCCCCCCCC)COC(=O)CCCCCCCCCCCCCCC | > 100 µM |  |
| Cc1cc(NS(=O)(=O)c2ccc(Nc3c4ccccc4nc4c(C(=O)NCCN(C)C)cccc34)cc2)no1 | > 100 µM |  |
| NC1=NS(=O)(=O)Nc2nc(-c3ccc(Cl)cc3)c(-c3ccc(Cl)cc3)nc21 | > 100 µM |  |
| O=C(NC(Cc1ccc(I)cc1)C(=O)O)c1ccc(Br)cc1 (stereo not given) | > 100 µM |  |

| Compound | TGI | GI50 |
| --- | --- | --- |
| COc1ccc(-c2c[nH]c(=S)n2-c2ccc(OC)cc2)cc1 | > 50 µM | > 50 µM |
| NCCSc1nc2ccccc2c(=O)n1-c1ccccc1 | > 100 µM |  |
| Cc1ccc(-c2cc(N)n(-c3nc4c(c(=O)n(C)c(=O)n4C)n3C)n2)cc1 | > 100 µM |  |
| Nn1c(CCCCCCCCc2nnc(COc3ccc(Cl)cc3)n2N)nnc1COc1ccc(Cl)cc1 | > 100 µM |  |
| N=C(N)SCc1cccc(-c2nc3ccccc3c(=O)o2)c1 | > 100 µM |  |
| CC(=O)/C=C/c1ccc(C#Cc2ccccc2)s1 | 28.2 µM | 14.9 µM |
| Nc1nc(SN=Nc2ccc(S(N)(=O)=O)cc2)c2[nH]cnc2n1 | > 100 µM | 3.65 µM |
| CCC(C)(C)c1ccc(OCCCCCCN2CCNCC2)cc1 | 9.26 µM | 3.05 µM |
| NC1=NS(=O)(=O)Nc2nc(-c3ccc([N+](=O)[O-])o3)[nH]c21 | 30 µM |  |
| Cc1cc(S(=O)(=O)N/N=C(\Sc2cc(Cl)c(C)cc2S(N)(=O)=O)c2ccc(Cl)cc2)c(Cl)cc1Cl | > 100 µM | > 100 µM |
| CCOC(=O)/C1=C(\C)N(c2ccc(C)cc2)C(=O)c2ccccc2C(=O)c2c(OC(C)=O)ccc(OC(C)=O)c21 | 38 µM |  |
| COc1ccc2c(O)cc3c(c2c1)[C@H](CCl)CN3C(=O)c1cc2cc(NC(=O)CCN3CCOCC3)ccc2[se]1 | 0.0835 µM | < 0.001 µM |
| O=C(CSC(c1ccccc1)c1ccccc1)N/N=C/c1ccc(Cl)cc1Cl | > 100 µM | 75.1 µM |
| O=S1OC2(c3ccccc3-c3ccccc32)c2ccccc21 (stereo not given) | > 100 µM |  |
| N.N.N.N.[Cl-].[Co+3].[N-]=[N+]=[N-].[N-]=[N+]=[N-] | > 100 µM | > 100 µM |
| O=c1oc2ccccc2c(Nc2ccc3c(c2)Oc2ccccc2O3)c1[N+](=O)[O-] | > 100 µM |  |
| C[C@]12CC[C@H](O)C[C@H]1CC[C@@H]1[C@@H]2CC[C@]2(C)[C@@H](C3=CC(=O)OC3)CC[C@]12O | 0.826 µM |  |
| COc1cc2c(c(OC)n1)[C@]1(O)[C@H](O)[C@H](CN(C)C)[C@@H](c3ccccc3)[C@]1(c1ccc(C#N)cc1)O2 | 1.83 µM and 1.31 µM | 0.0328 µM and 0.0262 µM |
| COc1cc2c3c(n(CCCN(C)C)c(=O)c2cc1OC)-c1ccccc1C3=O | > 100 µM | 23.6 µM |
| Cc1ccc([C@H]2CC(=O)C[C@H](c3ccc(C)cc3)C23C(=O)c2ccccc2C3=O)cc1 | > 100 µM |  |
| Nc1ccc(N=Nc2ccccc2)cc1 | > 100 µM |  |
| CCOC(=O)c1ccc(N2C(=S)N(C(=O)c3ccccc3)C(=Nc3ccccc3)C2=Nc2ccccc2)cc1 | > 100 µM |  |
| Cc1ccc2nc(Cl)c(/C=N/N3C(=O)/C(=C/c4ccccc4S)N=C3c3ccccc3)cc2c1 | > 100 µM |  |
| NCCN=C(Nc1ccccc1)Nc1ccccc1 | > 100 µM |  |
| Cc1cc(C)c(C2[C@H]3C(=O)N(c4ccc(Cc5ccc(N6C(=O)[C@@H]7ON(c8ccccc8)C(c8c(C)cc(C)cc8C)[C@@H]7C6=O)cc5)cc4)C(=O)[C@H]3ON2c2ccccc2)c(C)c1 (stereo not given in full) | > 100 µM |  |

| Compound | TGI | GI50 |
| --- | --- | --- |
| N#Cc1c(-c2ccccc2)nc(-c2ccccc2)sc1=S | > 100 µM |  |
| O=C(Nc1ccc(CO)cc1)c1coc2ccccc2c1=O | > 100 µM | > 100 µM |
| CCOc1ccc(-c2nc(-c3oc4ccccc4c(=O)c3OC(C)=O)cs2)cc1 | > 10 µM |  |
| O=C1CC2C(=O)N(Cc3ccccc3)C1C=C2S(=O)(=O)c1ccccc1 (stereo not given) | > 100 µM |  |
| O=C1c2ccccc2C(=O)N1Cc1ccccc1-c1c2nc(c(-c3ccccc3CN3C(=O)c4ccccc4C3=O)c3ccc([nH]3)c(-c3ccccc3CN3C(=O)c4ccccc4C3=O)c3nc(c(-c4ccccc4CN4C(=O)c5ccccc5C4=O)c4ccc1[nH]4)C=C3)C=C2 | > 100 µM |  |
| CCC1(C)N=C(c2cnccn2)NN1c1ccc(Cl)cc1 (stereo not given) | > 100 µM |  |
| COC(=O)/C(C)=C/[N+](=O)[O-] | 34.6 µM |  |
| Oc1cn(-c2ccc(Cl)cc2)nc1-c1n[nH]c(=S)n1C1CCCCC1 | 42.2 µM | 0.332 µM |
| CC(=O)N1N=C(c2ccc3ccccc3c2O)CC1C(=O)c1ccco1 (stereo not given) | > 100 µM |  |
| CCCCCC(=O)NC(=S)Nc1nn[nH]n1 | > 100 µM |  |
| CN[C@@H](C)[C@H](NC)c1ccccc1 | > 100 µM |  |
| CC1(CF)SCc2nc3ccccc3n21 (stereo not given) | > 100 µM |  |
| Cc1c(C2=C(Br)C(=O)N(C)C2=O)c(=O)n(C)c(=O)n1C | > 100 µM |  |
| O=c1[nH]/c(=C/c2ccc(OCc3ccccc3)cn2)c(=O)[nH]/c1=C/c1ccc(O)cc1 | > 100 µM |  |
| C[C@]12CC[C@@H]3c4ccc(O)cc4CC[C@H]3[C@@H]1CC[C@@H]2NS(=O)(=O)c1cccc(F)c1 | 22.3 µM | 9 µM |
| C=C1C(=O)O[C@H]2/C=C(/C)C3=CC(=O)[C@@](C)(C[C@@H](OC(=O)/C(C)=C\C)C12)O3 (stereo not given in full) | 25 µM |  |
| COC(=O)OCC1OC(N2C(=O)NC(=O)C(Br)C2N=[N+]=[N-])CC1OC(=O)OC (stereo not given) | > 100 µM |  |
| Cc1ccn2c(=O)cc(-c3ccccc3)nc2c1 | > 100 µM |  |
| CN(NC(=O)c1cccs1)C1=NCCCN1 | > 100 µM |  |
| O=C(COc1ccc(/C=C2\CSc3ccccc3C2=O)cc1)Nc1nccs1 | 41.4 µM | 19.9 µM |
| N=C(N)c1ccc(N=Nc2c(O)ccc3c2[nH]c2ccccc23)cc1 | 41.3 µM |  |
| Cc1cc(C2(O)C=C(C(C)(C)C)C(=O)C(C(C)(C)C)=C2)c(C)cc1C1(O)C=C(C(C)(C)C)C(=O)C(C(C)(C)C)=C1 | > 100 µM |  |
